In PMC6919601, “Identification of Plasmodium dipeptidyl aminopeptidase allosteric inhibitors by high throughput screening” (PLoS ONE, 2019):
Screen size: about 110,000 compounds; about 230 (0.21%) showed an effect of 50% or more. Some of the results follow.

Molecular target: DPAP1 (Plasmodium falciparum, UniProt Q8IIJ9)
Assay: primary screen, percent inhibition; read by cleavage of a fluorogenic dipeptide substrate; higher = more effect of the substance
Parameters: species or system P. falciparum D10 trophozoite lysates; single well
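Note: 30 min substrate incubation versus DMSO and 10 µM JCP410 controls.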

Sequence of DPAP1 (Q8IIJ9 whole entry, looked up): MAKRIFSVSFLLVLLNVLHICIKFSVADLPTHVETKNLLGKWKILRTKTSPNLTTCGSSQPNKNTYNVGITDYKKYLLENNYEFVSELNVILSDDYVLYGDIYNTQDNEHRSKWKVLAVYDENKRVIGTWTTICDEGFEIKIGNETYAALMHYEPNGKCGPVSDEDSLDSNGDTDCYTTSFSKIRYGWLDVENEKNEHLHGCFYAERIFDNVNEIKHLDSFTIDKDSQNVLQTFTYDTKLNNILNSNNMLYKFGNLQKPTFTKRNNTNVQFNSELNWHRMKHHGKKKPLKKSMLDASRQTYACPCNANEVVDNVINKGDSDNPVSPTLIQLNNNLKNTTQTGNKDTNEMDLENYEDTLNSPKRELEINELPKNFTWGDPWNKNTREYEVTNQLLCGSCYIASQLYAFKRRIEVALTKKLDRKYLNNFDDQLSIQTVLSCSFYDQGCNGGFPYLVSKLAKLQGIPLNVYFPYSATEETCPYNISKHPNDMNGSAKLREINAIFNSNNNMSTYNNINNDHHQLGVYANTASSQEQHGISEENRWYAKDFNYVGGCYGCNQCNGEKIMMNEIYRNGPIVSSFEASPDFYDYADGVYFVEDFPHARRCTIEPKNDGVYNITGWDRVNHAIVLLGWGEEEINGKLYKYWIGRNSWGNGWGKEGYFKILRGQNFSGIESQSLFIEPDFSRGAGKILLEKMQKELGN

Row | Structure (SMILES) | % Inhibition @ 10 uM
1 | CC(C)CCNC(=O)c1[nH]ncc1[N+](=O)[O-] | -0.591%
2 | CC1=C(C(=O)Nc2cccnc2)C(c2ccccn2)n2nc(-c3ccccc3)nc2N1 (centres unmarked) | -1.55%
3 | COc1cc2ccccc2cc1C(=O)N1CCN(C)CC1 | 4%
4 | Cc1cccn2c(=O)c(/C=C(\C#N)C(=O)N3CCCCC3)c(Oc3ccccc3)nc12 | 3.63%
5 | COc1cnn(C2CCCCC2)c(=O)c1O | -1.22%
6 | Cn1c(=O)c2c(nc(Cl)n2CC(=O)c2ccccc2)n(C)c1=O | 14.6%
7 | CCOc1ccccc1-n1nnc(S(=O)(=O)c2ccc(CC)cc2)c1N | -1.71%
8 | COc1ccc(Br)cc1Cc1nc(C)cc(Cl)n1 | 1.84%
9 | CC1CCC(NC(=O)c2cc(-c3ccc(Br)cc3)[nH]n2)CC1 (centres unmarked) | 3.64%
10 | Cc1ccc(/C=C(\C#N)C(=O)Nc2nc3ccccc3s2)o1 | -1.6%
11 | CC(C)C1C(C#N)=C(N)OC2=C1C(=O)CCC2 (centres unmarked) | -3.49%
12 | CCN(C(=O)c1cccc(Br)c1)c1ccccc1 | -1.07%
13 | O=C(Nc1ccccc1C(=O)O)c1ccc(NC(=O)c2ccccc2Br)cc1 | -6.74%
14 | CS(=O)(=O)N1N=C(c2ccccc2)CC1c1ccccc1 (centres unmarked) | -12.3%
15 | O=C(Nc1ccc(S(=O)(=O)N2CCOCC2)cc1)C(c1ccccc1)c1ccccc1 | 6.17%
16 | CC1CC(C)CN(C(=O)CSc2nc3ccsc3c(=O)n2Cc2ccccn2)C1 (centres unmarked) | -2.03%
17 | CCOc1cc(/C=C2/C=C(c3ccc(C)cc3)OC2=O)ccc1O | 2.6%
18 | Nc1c(C(=O)NCc2ccccn2)nnn1-c1ccc(OC(F)(F)F)cc1 | 1.24%
19 | CC(C)(C)CC(C)(C)NC(=O)CSc1nnc(-c2ccco2)n1-c1ccccc1 | 2.18%
20 | CC1CCC2(CC1)SCC(=O)N2c1ccc(F)c(Cl)c1 (centres unmarked) | -0.512%
21 | O=C(Nc1ccc(Br)cn1)c1ccc(Oc2ccccc2)cc1 | -2.8%
22 | Oc1ccccc1-c1nc2ccccc2s1 | -2.03%
23 | O=c1c2ccccc2nc(/C=C/c2cc(Br)cc(Br)c2O)n1-c1ccccc1 | 9.77%
24 | CCCC(=O)n1nc(-c2cccnc2)nc1N | -1.11%
25 | C=CCOc1ccc(C2CC(=O)Oc3c2c(O)nc2ccccc32)cc1 (centres unmarked) | -4.11%
26 | CCC1CCCCN1S(=O)(=O)c1cc(Br)ccc1Br (centres unmarked) | -4.7%
27 | N#C/C(=C\C=C\c1ccccc1)c1nc(-c2ccc(Cl)cc2)cs1 | -9.87%
28 | Cc1cc(C(=O)N(C)C2CCCCC2)on1 | -0.0115%
29 | O=C(O)C1CCC(C/N=c2\c(O)c(O)\c2=N/C2CCCCC2)CC1 (centres unmarked) | 14%
